According to the supplement of paper PMC3334620:
Whole data set: some 33,000 sequences, median “E-score (-0.5 to 0.5)” near -0.043, cut for the highest 2% near 0.37. This is one part of the list.

Biological target: T1, Upc2 (UniProt Q12151)
T1 sequence: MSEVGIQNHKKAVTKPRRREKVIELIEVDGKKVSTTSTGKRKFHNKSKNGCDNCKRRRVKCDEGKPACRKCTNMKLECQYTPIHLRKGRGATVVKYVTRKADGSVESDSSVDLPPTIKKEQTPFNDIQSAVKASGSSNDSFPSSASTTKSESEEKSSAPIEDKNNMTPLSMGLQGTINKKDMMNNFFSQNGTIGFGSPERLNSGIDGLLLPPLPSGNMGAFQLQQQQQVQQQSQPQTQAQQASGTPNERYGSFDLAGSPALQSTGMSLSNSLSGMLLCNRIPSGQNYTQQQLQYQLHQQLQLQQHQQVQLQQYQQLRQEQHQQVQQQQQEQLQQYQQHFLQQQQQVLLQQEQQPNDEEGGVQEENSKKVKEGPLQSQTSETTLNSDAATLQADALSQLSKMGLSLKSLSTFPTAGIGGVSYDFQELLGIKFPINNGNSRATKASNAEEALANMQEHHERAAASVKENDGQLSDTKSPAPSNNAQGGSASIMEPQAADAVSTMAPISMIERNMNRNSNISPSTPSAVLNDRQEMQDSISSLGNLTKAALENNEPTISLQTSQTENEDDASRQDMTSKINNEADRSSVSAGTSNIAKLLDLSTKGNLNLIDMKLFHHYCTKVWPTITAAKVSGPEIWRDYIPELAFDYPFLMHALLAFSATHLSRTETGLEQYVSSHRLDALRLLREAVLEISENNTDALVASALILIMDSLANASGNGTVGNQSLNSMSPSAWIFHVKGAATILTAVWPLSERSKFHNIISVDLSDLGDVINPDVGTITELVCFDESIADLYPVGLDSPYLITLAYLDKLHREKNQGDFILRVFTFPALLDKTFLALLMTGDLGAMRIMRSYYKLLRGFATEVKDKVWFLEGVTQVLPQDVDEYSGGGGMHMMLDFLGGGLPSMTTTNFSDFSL
Experiment: PBM E-score (8-mer binding enrichment) (E-score (-0.5 to 0.5)); higher = stronger / more preferred TF binding; most listed sequences are background and not binding sites
Settings: protein concentration: 200 nM; construct: GST-full length
Method in brief: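 PURExpress in vitro transcription/translation supplied GST-tagged yeast transcription factors, either full-length or DNA-binding domain. Applied at about 100-200 nM to universal all-10-mer Agilent arrays double-stranded by primer extension, the bound protein was detected with fluorescent anti-GST. E-scores, modified Wilcoxon-Mann-Whitney statistics, were given by the Universal PBM Analysis Suite to ungapped eight-base words pooled with their reverse complements after masliner normalisation.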

Sequence | PBM E-score
GTTTTCAA | 0.123
GGAGCATA | 0.0122
CCGCCACG | -0.103
CACCGTTC | 0.28
ACTATGGG | -0.149
ACTTGGTC | 0.0342
GGGTGCAA | -0.143
TAAAGATA | 0.126
GGGAAAGA | -0.12
GTCAATGA | -0.239
CTGAGATA | -0.0826
ACTGAGCT | -0.195
AAAGACTT | 0.0234
CAAGGCGC | -0.243
AAAATGCG | 0.256
TAGTAAAA | 0.0664
ATCAAGTA | -0.174
CCATACGA | 0.473
ACAATCTG | -0.262
AGTATGTA | 0.0299
ACACCGGC | 0.0266
CGACTGTA | 0.0412

Sequence | PBM E-score
TATCCTAA | -0.0589
AAGCAGTC | -0.0752
CTTCACTA | -0.219
ACGCTAGA | -0.146
ACCGAGGA | 0.262
TAGTGCCA | -0.208
GATGACCC | -0.172
ACTCGAAC | 0.119
AGACTGCG | -0.17
CCAGCTCC | -0.217
GAATTGCA | -0.0427
ATACCTAC | 0.0942
GCTTGAGA | -0.146
AGTACGGC | 0.299
ATAGTTTA | 0.0556
CTAGACGA | 0.24
ACACCGGG | -0.2
AGACTGGG | -0.146
TATTCTGA | -0.073
CTATGGAG | -0.173
AAGTTTAC | 0.212
GCTTCTAC | 0.0726

Sequence | PBM E-score
AGCAATGG | -0.0752
ATGGTGAG | -0.171
GACCAGTC | -0.288
AGGACAGA | -0.347
CCGGTGAC | -0.0955
ACTAGCAC | -0.142
CTCCGATA | -0.201
AGTTGTAA | -0.0253
ATTTTATA | 0.0653
CCTCCCAA | -0.0847
ACGCTGCT | 0.0566
GAACTAGA | -0.0571
GGAGGAGA | -0.146
CAAATTGC | 0.0476
CTTGAATA | -0.115
AACCGTCA | -0.268
CTGGCGAC | -0.322
AACCTTCG | 0.125
CGTCTCTA | -0.252
ATATGCTA | -0.00731
GCAAATAA | -0.0294
AAGTAAAG | -0.16

Sequence | PBM E-score
TAGGTAGA | -0.157
ATTCCCAG | 0.0557
CCTTCAAA | -0.166
TTGTCAAA | 0.0127
GTACTCAC | 0.039
CCTAACAA | -0.0359
CATCGCTC | 0.0855
CAGGCTGC | -0.339
GTATTAAA | 0.127
GGATCGCA | 0.134
CCAGGAGA | -0.21
CATGGAGA | -0.287
CCTGATAA | -0.0374
CCCCTAAA | -0.146
TAACGGTA | 0.225
TACTTTGA | -0.0619
GGGTCCGA | 0.0594
CCAAGTGA | -0.159
ATCGCACC | 0.0584
AAGGTTCC | -0.228
